# In PubChem BioAssay AID1345083 (National Center for Advancing Translational Sciences (NCATS), 2018):
# Hit rate of the full screen: of about 94,000 compounds, about 6,200 (6.6%) were called active. Inconclusive means that the source gave no clear call. Such entries were picked first, then a sample of the others. Calls come from the whole dose curve; as a rule, active = well fitted inhibition curve with a large enough effect; inconclusive = small, poorly fitted or top-dose-only effect; inactive = flat fitted curve, though single readings scatter. Where the call is inconclusive, the potency comes from a doubtful curve fit.
# Assay: Cytotoxic Profiling in HEK 293 Cell Line of Diverse Libraries Using Quantitative High-Throughput Screening; note: nearly all actives have a fitted effect of over 60% in size
# Conditions: HEK 293 viability, ATP luminescence (CellTiter-Glo), 48-72 h; series mostly up to 115 µM
# How it was run: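 Cells seeded first (HEK 293, 250 cells/well), then compound added by pintool. Incubation ran 48 or 72 hr at 37 degree Celsius. CellTiter-Glo was added and luminescence imaged after 10 min at room temperature.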
# Potency is the fitted concentration of half-maximal effect; tags give direction and shape of the fitted curve.
row,SMILES,Potency
1,NC(=O)c1ccc(CC2CCN(C(=O)C3CCOCC3)CC2)cc1,inactive
2,C[C@@H]1C(=O)O[C@H]2[C@H]1CC[C@@]1(C)Cc3sc(NCCc4ccccn4)nc3[C@@H](C)[C@H]21,active: 35.5 µM
3,O=C(Cc1ccc(N(Cc2cccc(F)c2)C(=O)c2ccco2)cc1)NCc1ccccc1,"inconclusive: 31.6 µM [inhibitor, partial curve, poor fit]"
4,COc1ccc(-c2noc(CC3CCN(C(=O)CCc4cccc(OC)c4)CC3)n2)cc1,"inconclusive: 35.5 µM [inhibitor, partial curve, poor fit]"
5,COc1ccc(OCC2CC3(CCCCC3)CN2S(C)(=O)=O)cc1 (centres undefined),"inconclusive: 44.7 µM [inhibitor, partial curve, poor fit]"
6,COc1ccc(C2Cn3nnc(-c4nc(C5CCCCC5)no4)c3CO2)cc1 (centres undefined),inactive
7,Cc1noc2c(-c3cccnc3NC(C)C)cc(-c3ccccc3)nc12,"inconclusive: 22.4 µM [inhibitor, full curve, poor fit]"
8,CC(=O)c1ccc(NC(=O)N[C@@H]2C=C(C(=O)NCCC(N)=O)C[C@@H](O)[C@@H]2O)cc1,inactive
9,Cc1cccc2c1nc1n2[C@@H](CNS(=O)(=O)c2ccccc2)COC1,"inconclusive: 89.1 µM [inhibitor, partial curve]"
10,O=C(Nc1ccc(F)cc1)c1cc(-c2ccc[nH]2)n[nH]1,inactive
11,CN1C[C@@H](NC(=O)c2ccc(F)cc2)C[C@H]1c1nc(-c2ccc(Cl)cc2)no1,"inconclusive: 79.4 µM [inhibitor, partial curve, poor fit]"
12,O=C([C@@H]1C[C@H](Oc2cccnc2)CN1C(=O)COc1ccc(F)cc1)N1CCCC1,inactive
13,O=C1Nc2ccc(-c3cccc(C(F)(F)F)c3)cc2C(=O)N2CCN(C(=O)c3ccccc3)C[C@H]12,active: 20 µM
14,Cc1cc(S(=O)(=O)N2CCCC(Cn3c(C)nc4cccnc43)C2)ccc1Cl (centres undefined),"inconclusive: 50.1 µM [inhibitor, partial curve, poor fit]"
15,Cc1cccnc1CNC(=O)[C@H]1C[C@@H](C(=O)O)N(C)[C@H]1c1cccc(Cl)c1,"inconclusive: 89.1 µM [inhibitor, partial curve, poor fit]"
16,C[S+](=O)([O-])NC1CCCN(c2ccc3nnc(-c4ccccc4)n3n2)C1 (centres undefined),"inconclusive: 50.1 µM [inhibitor, partial curve, poor fit]"
17,CCN(C)C(=O)CN1C[C@@H]2C[C@H]1C(=O)N2c1cc(-c2ccccc2)ccc1OC,"inconclusive: 11.2 µM [inhibitor, full curve, poor fit]"
18,CCOc1cccc(CNC(=O)CC2CCOCC2)c1,inactive
19,CN(C)Cc1ccc(-c2cc(-c3cn[nH]c3)c3cncn3c2)cc1,"inconclusive: 126 µM [inhibitor, single point]"
20,Cc1noc(C)c1S(=O)(=O)N1CCC(C(=O)N2CCC(CCOc3ccc(F)cc3)C2)CC1 (centres undefined),"inconclusive: 28.2 µM [inhibitor, partial curve, poor fit]"
21,COCCOc1cc(C)c2c(c1C)C[C@H](C(C)C(=O)NC(C)(C)C)CC2 (some centres undefined),"inconclusive: 70.8 µM [inhibitor, partial curve, poor fit]"
22,O=C1CO[C@H]2CN(Cc3ccccc3)C[C@H]2N1Cc1cccc(C(F)(F)F)c1,"inconclusive: 79.4 µM [inhibitor, partial curve]"

row,SMILES,Potency
1,Cc1cccc(N2CCN(CC(=O)N3C[C@@H](C)[C@](O)(C4CCC4)C3)CC2)c1,inactive
2,CCOC(=O)C1CCN(C(=O)c2coc(COc3cccc(F)c3)n2)CC1,inactive
3,O=C(c1csc(N2CCN(c3ccccc3)CC2)n1)N1CCN(c2ccccn2)CC1,inactive
4,O=C(NCc1nnc2ccc(-c3ccccc3)nn12)c1cccc(C(F)(F)F)c1,"inconclusive: 63.1 µM [inhibitor, partial curve, poor fit]"
5,CC(C)(N)C(=O)N1CCCC(N2CCN(c3ccccc3F)CC2)C1 (centres undefined),inactive
6,COCCC(=O)N[C@H]1C[C@@H](c2nc(-c3ccc(OC(F)(F)F)cc3)no2)N(C)C1,"inconclusive: 20 µM [inhibitor, partial curve, poor fit]"
7,Cc1nnc(-c2cc(-c3cccc(O)c3)ccn2)n1CCc1ccccc1,"inconclusive: 44.7 µM [inhibitor, partial curve, poor fit]"
8,CCn1cc(-c2ccc(C)cc2)cc1C(=O)NC(C)c1ccccn1 (centres undefined),active: 39.8 µM
9,COc1ccc(Nc2ccnc(N3CCCC(C(=O)NCCc4ccccc4)C3)n2)cc1 (centres undefined),"inconclusive: 17.8 µM [inhibitor, full curve]"
10,CCn1cc(-c2ccc(C)cc2)cc1C(=O)N1CCC(C)CC1,"inconclusive: 56.2 µM [inhibitor, partial curve, poor fit]"
11,COc1ccc(CCC(=O)N2CCN(C(=O)c3nnn4c3COC(c3ccc(C)cc3)C4)CC2)cc1 (centres undefined),"inconclusive: 39.8 µM [inhibitor, single point]"
12,COc1ccc(C(=O)N2CCC3(CC2)N=C(c2ccc(Cl)cc2)NO3)cc1OC,"inconclusive: 8.91 µM [inhibitor, full curve, poor fit]"
13,O=C(NCCc1ccccc1)C1(CCO)CCN(c2ncccn2)C1 (centres undefined),"inconclusive: 89.1 µM [inhibitor, partial curve, poor fit]"
14,O=C(C1CC1)N1CCC(c2nn(-c3ccc(Cl)cc3)c(=O)[nH]2)CC1,inactive
15,Cc1nn(CCCNC(=O)C2CCOc3ccccc3C2)c(C)c1Cl (centres undefined),"inconclusive: 89.1 µM [inhibitor, single point]"
16,CN(Cc1ccccc1)C1CCOC2(CCN(C(=O)CCc3nc4ccccc4[nH]3)CC2)C1 (centres undefined),inactive
17,CC(C(=O)N1CC(c2noc(COc3ccccc3)n2)C1)c1ccccc1 (centres undefined),"inconclusive: 50.1 µM [inhibitor, partial curve, poor fit]"
18,Cc1noc(C)c1[S+](=O)([O-])N1CCC2(CC1)CNC(=O)c1ccccc1O2,"inconclusive: 100 µM [inhibitor, single point]"
19,COc1ccccc1N1CCCc2ncc(C(=O)Nc3ccccc3C)cc21,"inconclusive: 100 µM [inhibitor, partial curve, poor fit]"
20,Cc1nccc(-c2ccccc2)c1C(=O)N(C)Cc1csc(C(C)C)n1,"inconclusive: 50.1 µM [inhibitor, partial curve, poor fit]"
21,Cc1noc2c(-c3cccnc3NCCN(C)C)cc(-c3ccccc3)nc12,active: 89.1 µM
22,Oc1cc(-c2cccc(Cl)c2)cc2c1OCCN(Cc1noc(C3CC3)n1)C2,"inconclusive: 50.1 µM [inhibitor, partial curve, poor fit]"

row,SMILES,Potency
1,O=C1NN=C(c2ccccn2)C12CCN([S+](=O)([O-])c1cccc(C(F)(F)F)c1)CC2,"inconclusive: 63.1 µM [inhibitor, partial curve, poor fit]"
2,COc1ccc(C(=O)N2C[C@@H](CO)[C@H](c3ccncc3)C2)c(OC)c1,inactive
3,O=C(NCc1ccccc1)c1cnc2n1CCN(Cc1c[nH]c3ccccc13)CC2,"inconclusive: 100 µM [inhibitor, partial curve, poor fit]"
4,O=C(c1cc(Cl)ccc1F)N1CCC[C@H]1c1nc(-c2ccccc2)no1,"inconclusive: 79.4 µM [inhibitor, single point]"
5,COc1ccc(-c2cn3cc(C(=O)NCc4ccccc4)nc3s2)cc1,inactive
6,COc1ccc(CC(=O)N2CCC(Cc3nc(-c4ccc(F)cc4)no3)CC2)cc1OC,"inconclusive: 10 µM [inhibitor, full curve, poor fit]"
7,FC(F)Oc1cccc(CNC2CCC3(CCNCC3)CC2)c1,active: 50.1 µM
8,COc1ccccc1-c1noc(CCC(=O)N2CCc3c(nc4cc(-c5ccccc5)[nH]n4c3=O)C2)n1,"inconclusive: 89.1 µM [inhibitor, single point]"
9,CC(c1cccs1)N(C)C(=O)Cc1cccc(Cl)c1 (centres undefined),"inconclusive: 89.1 µM [inhibitor, partial curve, poor fit]"
10,Cc1cc(C)n(Cc2cc(C(=O)NC[C@H]3C[C@H]4C=C[C@H]3C43CC3)n[nH]2)n1,"inconclusive: 89.1 µM [inhibitor, single point]"
11,Cc1ccccc1CCC1CCCN(C(=O)CCN2CCCC2=O)C1 (centres undefined),"inconclusive: 56.2 µM [inhibitor, partial curve, poor fit]"
12,C#CCN(C)Cc1nc(C2(O)CCN(CC3CCCCC3)CC2)cs1,inactive
13,Cn1cc(-c2cccc(O)c2)c2nc(COc3ccc(Cl)cc3)cn2c1=O,active: 31.6 µM
14,O=C(Cn1c(=O)c2c(n1Cc1ccccc1)CN(Cc1ccccc1)CC2)NCc1ccc(F)cc1,"inconclusive: 20 µM [inhibitor, full curve]"
15,CN(C)C[C@@H]1CN(c2ccncn2)C[C@H]1NC(=O)CC1CCCCC1,inactive
16,COCCNc1ncc(-c2ccc(OC)cc2)c2c1OCC2,"inconclusive: 112 µM [inhibitor, partial curve]"
17,CC(C)c1nc2c(c(-c3ccc(O)cc3)n1)CN(C(=O)Nc1ccc(Cl)cc1)CC2,"inconclusive: 50.1 µM [inhibitor, partial curve, poor fit]"
18,Cn1cc(CN2CCN(C(=O)c3ccsc3)CC2)ccc1=O,inactive
19,O=C(c1ccc(F)cc1F)N1CCC2(CC1)N=C(c1ccc(Cl)cc1)NO2,"inconclusive: 39.8 µM [inhibitor, partial curve, poor fit]"
20,COc1ccc(-c2nc3ccc(-c4ccc5c(c4)OCO5)cc3o2)c(OC)c1OC,"inconclusive: 79.4 µM [inhibitor, partial curve]"
